Measurements as given in PubChem BioAssay AID1347165 (National Center for Advancing Translational Sciences (NCATS), 2019).
The campaign covered roughly 220,000 compounds. About 5,700 (2.6%) were called active. This list was built around the results that the source calls inconclusive (neither active nor inactive); the mix of calls is not that of the screen. Calls follow the shape of the dose curve; as a rule, active = well fitted inhibition curve with a large enough effect; inconclusive = small, poorly fitted or top-dose-only effect; inactive = no such curve, though single readings can be large or run the other way. Potencies beside an inconclusive call are fits to weak or partial responses and may not hold up.

Each compound was assayed against Lysine-specific demethylase 5B (Homo sapiens) (UniProt Q9UGL1) (assay: Primary screen for KDM5B Histone Demethylases FDH-coupled qHTS). Details: FDH-coupled NADH fluorescence (FDH is formaldehyde dehydrogenase); activity change, negative = inhibition: at 57.7 µM (top of the series) unless noted.
Sequence of UniProt Q9UGL1 (Q9UGL1 whole entry, looked up, the tested form may be a part): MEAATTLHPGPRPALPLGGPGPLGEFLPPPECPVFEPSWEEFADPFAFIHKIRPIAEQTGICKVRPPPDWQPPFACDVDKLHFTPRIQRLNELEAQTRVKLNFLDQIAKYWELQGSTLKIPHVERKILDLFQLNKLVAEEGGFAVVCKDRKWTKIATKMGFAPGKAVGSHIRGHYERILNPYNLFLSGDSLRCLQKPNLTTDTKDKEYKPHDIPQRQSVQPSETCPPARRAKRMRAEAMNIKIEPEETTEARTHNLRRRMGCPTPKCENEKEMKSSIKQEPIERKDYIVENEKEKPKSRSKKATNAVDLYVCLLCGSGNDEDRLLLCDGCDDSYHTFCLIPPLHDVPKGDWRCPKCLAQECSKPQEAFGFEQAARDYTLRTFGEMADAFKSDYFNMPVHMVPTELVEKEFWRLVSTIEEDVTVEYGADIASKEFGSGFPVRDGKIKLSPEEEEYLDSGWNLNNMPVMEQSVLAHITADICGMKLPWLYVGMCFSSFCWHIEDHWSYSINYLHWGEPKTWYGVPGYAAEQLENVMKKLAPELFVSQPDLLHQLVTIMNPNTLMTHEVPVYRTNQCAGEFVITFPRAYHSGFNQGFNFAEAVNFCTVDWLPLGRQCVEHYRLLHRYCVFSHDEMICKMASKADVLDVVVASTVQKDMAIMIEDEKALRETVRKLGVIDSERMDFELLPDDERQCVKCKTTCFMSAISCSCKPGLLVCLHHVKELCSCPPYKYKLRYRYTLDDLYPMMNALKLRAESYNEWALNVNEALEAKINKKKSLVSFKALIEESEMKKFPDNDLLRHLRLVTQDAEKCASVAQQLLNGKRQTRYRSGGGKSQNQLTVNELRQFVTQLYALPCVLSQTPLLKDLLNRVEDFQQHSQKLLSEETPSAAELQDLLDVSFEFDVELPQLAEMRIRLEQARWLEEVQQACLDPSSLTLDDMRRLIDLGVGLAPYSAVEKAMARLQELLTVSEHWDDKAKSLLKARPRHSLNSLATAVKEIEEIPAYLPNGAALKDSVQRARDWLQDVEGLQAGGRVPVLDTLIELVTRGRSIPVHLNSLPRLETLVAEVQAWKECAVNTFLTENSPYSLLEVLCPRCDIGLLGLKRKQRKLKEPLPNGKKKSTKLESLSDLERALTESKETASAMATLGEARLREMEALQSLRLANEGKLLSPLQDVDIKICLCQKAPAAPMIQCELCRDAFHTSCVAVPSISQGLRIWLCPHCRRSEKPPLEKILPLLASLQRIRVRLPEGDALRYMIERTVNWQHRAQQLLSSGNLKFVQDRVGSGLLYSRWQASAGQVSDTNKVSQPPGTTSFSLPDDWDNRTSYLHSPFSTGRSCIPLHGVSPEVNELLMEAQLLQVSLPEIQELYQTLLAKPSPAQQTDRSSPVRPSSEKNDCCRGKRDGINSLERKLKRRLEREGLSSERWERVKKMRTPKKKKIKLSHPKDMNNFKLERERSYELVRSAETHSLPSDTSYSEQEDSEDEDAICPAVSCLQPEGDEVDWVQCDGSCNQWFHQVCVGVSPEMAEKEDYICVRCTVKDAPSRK
Summary of the method: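 Inhibition is measured as reduced NADH fluorescence generation from FDH coupling to formaldehyde release. Truncated KDM5BΔAP at 200 nM final acts on H3K4me3 peptide (12.5 µM in substrate mix) in pH 7.5 HEPES buffer with Tween-20, 30 min, room temperature.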
Also: nearly all actives have a fitted effect of over 70% in size.
For activity change, negative = inhibition in this document: 0% is about no effect.
Potency is read from the fitted curve at half-maximal effect; tags tell the direction and shape of the fitted curve.

Compound	Potency	activity change, negative = inhibition
CNC(=O)c1c(NC(=O)c2ccc(S(=O)(=O)N3CCCCC3C)cc2)sc2c1CCC2 (stereo unspecified)	inconclusive: 6.31 µM [inhibitor, partial curve, poor fit]	
O=C(Cc1ccc(Cl)cc1)Nc1nc2c(s1)CCCC2		inactive: 9.66%
CC(C)NC(=O)N[C@H]1CCN2C(=O)c3cc(-c4ccc5c(c4)OCO5)ccc3NC(=O)[C@@H]2C1	active: 31.6 µM	
CCCCN(CCCNC(=O)c1c(C)oc2nc[nH]c(=O)c12)Cc1ccccc1	inconclusive: 3.98 µM [inhibitor, full curve, poor fit]	
CCCCn1c(SCc2ccccc2Cl)nc2c1c(=O)[nH]c(=O)n2C		inactive: -3.89%
CC(C)c1ccc(C(C)NC(=O)C2CC2)cc1 (stereo unspecified)		inactive: 18%
O=C(c1ccc(Cl)cc1)N1CC(CO)C2(CCNCC2)C1 (stereo unspecified)	inconclusive: 11.2 µM [inhibitor, partial curve, poor fit]	
CS(=O)(=O)N1Cc2ccccc2CC2(CCN(Cc3ccccn3)C2)C1 (stereo unspecified)	inconclusive: 31.6 µM [inhibitor, partial curve, poor fit]	
O=C(/C=C/c1ccccc1OC(=O)c1cccs1)c1cc2ccccc2o1		inactive: -5.86%
COc1ccc(NC(=O)C2Cn3cccc3C(=O)N2)c(OC)c1 (stereo unspecified)	inconclusive: 28.2 µM [inhibitor, single point]	
COCC1CN(C2CCC2)CC12CCN(C(=O)Cc1ccccc1)CC2 (stereo unspecified)	inconclusive: 14.1 µM [inhibitor, partial curve]	
Cc1ccc(NC(=O)Cn2cc(S(=O)(=O)N3CCC(C)CC3)c3ccccc3c2=O)c(Br)c1	inconclusive: 17.8 µM [inhibitor, single point]	
COc1ccccc1CN1CC[C@@H]2OCC(=O)N(C(C)C)[C@H]2CC1	inconclusive: 50.1 µM [inhibitor, partial curve, poor fit]	
CCCN(C(=O)Cn1ncc2c([nH]c3ccc(C)cc32)c1=O)c1ccccc1C	inconclusive: 5.62 µM [inhibitor, full curve, poor fit]	
Cc1cc(C(=O)CN2C(=O)NC(Cc3c[nH]c4ccccc34)C2=O)c(C)n1C1CC1 (stereo unspecified)		inactive: 1.97%
COc1cccc(N2CC(NC(=O)/C=C\c3ccc(OC)c(OC)c3)CC2=O)c1 (stereo unspecified)	inconclusive: 22.4 µM [inhibitor, partial curve, poor fit]	
CCOc1ccccc1NC(=O)c1c(NCc2sccc2C)sc2c1CCC(C)C2 (stereo unspecified)	inconclusive: 31.6 µM [inhibitor, partial curve, poor fit]	
O=C(Cc1c[nH]c2ncc(-c3ccccc3)cc12)N1CCN(c2ccccn2)CC1	inconclusive: 17.8 µM [inhibitor, partial curve]	
O=C(Nc1ccc(Cl)cc1)N1CCC(c2ccccc2)C1 (stereo unspecified)	inconclusive: 1 µM [inhibitor, full curve, poor fit]	
COc1ccc(C(=O)N2[C@@H]3CC[C@H]2CC(NC(=O)c2cnc(C)cn2)C3)cc1F (stereo partly specified)		inactive: 18.7%
Cc1ccc(CNC(=O)C2CCN(C(=O)c3cc4c(=O)[nH]c(C)cn4n3)CC2)cc1		inactive: -10.4%
CCc1noc(-c2cccn3c(CNC(=O)c4ccccn4)nnc23)n1	active: 25.1 µM	
Cc1ccc(NC(=O)C2CCCCC2)cc1		inactive: 6.29%

Compound	Potency	activity change, negative = inhibition
O=C(CN1C(=O)C(=O)N(C2CCCC2)C1=O)NCCc1ccc(Cl)cc1Cl		inactive: 17.6%
O=C1COc2ccc(-c3ccsc3)nc2CN1	inconclusive: 31.6 µM [inhibitor, partial curve]	
COC(=O)C1CCN(Cc2cc(=O)oc3cc(C)c(Cl)c(C)c23)CC1		inactive: 3.2%
CCOC(=O)NC(C)C12CC3CC(CC(C3)C1)C2 (stereo unspecified)		inactive: 21.7%
COc1ccc(-c2noc(C(=O)O)c2[C@@H](C)NC(=O)Nc2cccnc2)cc1	inconclusive: 35.5 µM [inhibitor, single point]	
NC1CCCCN(Cc2cc(-c3ccccc3OC(F)(F)F)no2)C1 (stereo unspecified)		inactive: 8.69%
COCCn1c2c(c(=O)[nH]c1=O)C(c1ccccc1Cl)C1=C(N2)c2ccccc2C1=O (stereo unspecified)	inconclusive: 28.2 µM [inhibitor, partial curve, poor fit]	
Cc1ccc(NC(=O)c2ccc3ccccc3n2)cc1Cl	inconclusive: 17.8 µM [inhibitor, partial curve, poor fit]	
CCOC(=O)c1cccc2c1N[C@@H](c1ccc(F)cc1)[C@H]1CC=C[C@@H]21	inconclusive: 15.8 µM [inhibitor, partial curve, poor fit]	
COCC1CN(C)CC12CCN(Cc1cc(Br)ccc1F)CC2 (stereo unspecified)	inconclusive: 25.1 µM [inhibitor, single point]	
COc1cc(OC)cc(C(=O)NC2CCc3ccccc32)c1 (stereo unspecified)		inactive: 18.4%
O=C(Cn1cnc2sccc2c1=O)NC1CCCc2c1[nH]c1ccccc21 (stereo unspecified)	inconclusive: 28.2 µM [inhibitor, partial curve, poor fit]	
Cc1noc(C)c1-c1cc2cc(C(C)C)oc2c(-c2ccc(CO)cc2)n1	active: 28.2 µM	
COc1ccc(NC(=O)c2cnc(N3CCCCC3)c3ccccc23)cc1Cl	inconclusive: 35.5 µM [inhibitor, partial curve, poor fit]	
Cc1ccc(OCCCCc2c(C)n[nH]c2C)c(C(C)(C)C)c1		inactive: -25.2%
Cc1cc2cc(-c3c(C)noc3C)nc(N3CCN(c4ccccn4)CC3)c2o1	active: 31.6 µM	
Cc1ccc2c(=O)cc(C(=O)N(Cc3cccc(Cl)c3)C3CCS(=O)(=O)C3)oc2c1C (stereo unspecified)		inactive: -4.36%
Clc1cccc(-n2c(SCc3nnnn3-c3ccccc3)nnc2N2CCCC2)c1		inactive: 15%
COc1ccccc1CNc1nccn(-c2ccccc2)c1=O		inconclusive: -35.8% [inhibitor]
CCOC(=O)N1CCc2c(sc3c2C(=O)NC(c2ccccc2F)N3)C1 (stereo unspecified)	inconclusive: 25.1 µM [inhibitor, single point]	
COc1ccc(-c2ocnc2C(=O)Nc2ccc(C)c(Cl)c2)cc1OC	inconclusive: 28.2 µM [inhibitor, partial curve, poor fit]	
CCC(N)(C(=O)O)c1cccc(Cl)c1 (stereo unspecified)		inactive: -3.99%
C=CCNC(=O)C[C@@H]1CCN(C(=O)Nc2cccc(C(=O)OCC)c2)C[C@@H]1CC		inactive: 5.84% [at 86.2 µM]
